Measurements from the supplement of paper PMC8728848.
This is one part of the list.

What was measured:
Assay in all cases: glycan array binding signal (z-score within array); higher = stronger binding
Conditions in all cases: glycan notation: IUPAC condensed, linker removed
[1] = target: Gal(b1-4)GlcNAc(b1-3)Gal(b1-4)GlcNAc(b1-2)Man(a1-3)[Gal(b1-4)GlcNAc(b1-3)Gal(b1-4)GlcNAc(b1-2)Man(a1-6)]Man(b1-4)GlcNAc(b1-4)[Fuc(a1-6)]GlcNAc
Summary of the method: (§1)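 Glycan array binding is given as a within-array Z-score, which can be read as non-binding when negative. The arrays, 3228 of them, came from the Consortium for Functional Glycomics database and were retained only where the protein sequence was available. Z-scores were averaged across arrays of the same protein sequence at different concentrations or buffers and across linkers.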

[2] = target: Gal(b1-4)GlcNAc(b1-3)Gal(b1-4)GlcNAc(b1-2)[Gal(b1-4)GlcNAc(b1-3)Gal(b1-4)GlcNAc(b1-6)]Man(a1-6)[Gal(b1-4)GlcNAc(b1-3)Gal(b1-4)GlcNAc(b1-2)Man(a1-3)]Man(b1-4)GlcNAc(b1-4)GlcNAc
Summary of the method: as §1

[3] = target: Gal(b1-4)GlcNAc(b1-3)Gal(b1-4)GlcNAc(b1-2)[Gal(b1-4)GlcNAc(b1-3)Gal(b1-4)GlcNAc(b1-6)]Man(a1-6)[Gal(b1-4)GlcNAc(b1-3)Gal(b1-4)GlcNAc(b1-2)Man(a1-3)]Man(b1-4)GlcNAc(b1-4)[Fuc(a1-6)]GlcNAc
Summary of the method: as §1

[4] = target: Gal(b1-4)GlcNAc(b1-3)Gal(b1-4)GlcNAc(b1-3)Gal(b1-4)GlcNAc
Summary of the method: as §1

[5] = target: Gal(b1-4)GlcNAc(b1-3)Gal(b1-4)GlcNAc(b1-3)Gal(b1-4)GlcNAc(b1-2)Man(a1-3)[Gal(b1-4)GlcNAc(b1-3)Gal(b1-4)GlcNAc(b1-3)Gal(b1-4)GlcNAc(b1-2)Man(a1-6)]Man(b1-4)GlcNAc(b1-4)GlcNAc
Summary of the method: as §1

[6] = target: Gal(b1-4)GlcNAc(b1-3)Gal(b1-4)GlcNAc(b1-3)Gal(b1-4)GlcNAc(b1-2)Man(a1-3)[Gal(b1-4)GlcNAc(b1-3)Gal(b1-4)GlcNAc(b1-3)Gal(b1-4)GlcNAc(b1-2)Man(a1-6)]Man(b1-4)GlcNAc(b1-4)[Fuc(a1-6)]GlcNAc
Summary of the method: as §1

[7] = target: Gal(b1-4)GlcNAc(b1-3)Gal(b1-4)GlcNAc(b1-3)Gal(b1-4)GlcNAc(b1-2)[Gal(b1-4)GlcNAc(b1-3)Gal(b1-4)GlcNAc(b1-3)Gal(b1-4)GlcNAc(b1-6)]Man(a1-6)[Gal(b1-4)GlcNAc(b1-3)Gal(b1-4)GlcNAc(b1-3)Gal(b1-4)GlcNAc(b1-2)Man(a1-3)]Man(b1-4)GlcNAc(b1-4)[Fuc(a1-6)]GlcNAc
Summary of the method: as §1

[8] = target: Gal(b1-4)GlcNAc(b1-3)Gal(b1-4)GlcNAc(b1-3)Gal(b1-4)GlcNAc(b1-3)Gal(b1-4)GlcNAc(b1-2)Man(a1-3)[Gal(b1-4)GlcNAc(b1-3)Gal(b1-4)GlcNAc(b1-3)Gal(b1-4)GlcNAc(b1-3)Gal(b1-4)GlcNAc(b1-2)Man(a1-6)]Man(b1-4)GlcNAc(b1-4)GlcNAc
Summary of the method: as §1

[9] = target: Gal(b1-4)GlcNAc(b1-3)Gal(b1-4)GlcNAc(b1-3)Gal(b1-4)GlcNAc(b1-3)Gal(b1-4)GlcNAc(b1-2)Man(a1-3)[Gal(b1-4)GlcNAc(b1-3)Gal(b1-4)GlcNAc(b1-3)Gal(b1-4)GlcNAc(b1-3)Gal(b1-4)GlcNAc(b1-2)Man(a1-6)]Man(b1-4)GlcNAc(b1-4)[Fuc(a1-6)]GlcNAc
Summary of the method: as §1

[10] = target: Gal(b1-4)GlcNAc(b1-3)Gal(b1-4)GlcNAc(b1-3)Gal(b1-4)GlcNAc(b1-3)Gal(b1-4)GlcNAc(b1-2)[Gal(b1-4)GlcNAc(b1-3)Gal(b1-4)GlcNAc(b1-3)Gal(b1-4)GlcNAc(b1-3)Gal(b1-4)GlcNAc(b1-6)]Man(a1-6)[Gal(b1-4)GlcNAc(b1-3)Gal(b1-4)GlcNAc(b1-3)Gal(b1-4)GlcNAc(b1-3)Gal(b1-4)GlcNAc(b1-2)Man(a1-3)]Man(b1-4)GlcNAc(b1-4)[Fuc(a1-6)]GlcNAc
Summary of the method: as §1

[11] = target: Gal(b1-4)GlcNAc(b1-3)Gal(b1-4)GlcNAc(b1-3)Gal(b1-4)GlcNAc(b1-3)Gal(b1-4)GlcNAc(b1-3)Gal(b1-4)GlcNAc(b1-2)Man(a1-3)[Gal(b1-4)GlcNAc(b1-3)Gal(b1-4)GlcNAc(b1-3)Gal(b1-4)GlcNAc(b1-3)Gal(b1-4)GlcNAc(b1-3)Gal(b1-4)GlcNAc(b1-2)Man(a1-6)]Man(b1-4)GlcNAc(b1-4)GlcNAc
Summary of the method: as §1

[12] = target: Gal(b1-4)GlcNAc(b1-3)Gal(b1-4)GlcNAc(b1-3)Gal(b1-4)GlcNAc(b1-3)Gal(b1-4)GlcNAc(b1-3)Gal(b1-4)GlcNAc(b1-2)Man(a1-3)[Gal(b1-4)GlcNAc(b1-3)Gal(b1-4)GlcNAc(b1-3)Gal(b1-4)GlcNAc(b1-3)Gal(b1-4)GlcNAc(b1-3)Gal(b1-4)GlcNAc(b1-2)Man(a1-6)]Man(b1-4)GlcNAc(b1-4)[Fuc(a1-6)]GlcNAc
Summary of the method: as §1

[13] = target: Gal(b1-4)GlcNAc(b1-3)Gal(b1-4)GlcNAc(b1-3)Gal(b1-4)GlcNAc(b1-3)Gal(b1-4)GlcNAc(b1-3)Gal(b1-4)GlcNAc(b1-2)[Gal(b1-4)GlcNAc(b1-3)Gal(b1-4)GlcNAc(b1-3)Gal(b1-4)GlcNAc(b1-3)Gal(b1-4)GlcNAc(b1-3)Gal(b1-4)GlcNAc(b1-6)]Man(a1-6)[Gal(b1-4)GlcNAc(b1-3)Gal(b1-4)GlcNAc(b1-3)Gal(b1-4)GlcNAc(b1-3)Gal(b1-4)GlcNAc(b1-3)Gal(b1-4)GlcNAc(b1-2)Man(a1-3)]Man(b1-4)GlcNAc(b1-4)[Fuc(a1-6)]GlcNAc
Summary of the method: as §1

[14] = target: Gal(b1-4)GlcNAc(b1-3)Gal(b1-4)GlcNAc(b1-3)Gal(b1-4)GlcNAc(b1-3)Gal(b1-4)GlcNAc(b1-3)Gal(b1-4)GlcNAc(b1-3)Gal(b1-4)GlcNAc(b1-2)Man(a1-3)[Gal(b1-4)GlcNAc(b1-3)Gal(b1-4)GlcNAc(b1-3)Gal(b1-4)GlcNAc(b1-3)Gal(b1-4)GlcNAc(b1-3)Gal(b1-4)GlcNAc(b1-3)Gal(b1-4)GlcNAc(b1-2)Man(a1-6)]Man(b1-4)GlcNAc(b1-4)GlcNAc
Summary of the method: as §1

[15] = target: Gal(b1-4)GlcNAc(b1-3)Gal(b1-4)GlcNAc(b1-3)GalNAc
Summary of the method: as §1

[16] = target: Gal(b1-4)GlcNAc(b1-3)Gal(b1-4)GlcNAc(b1-3)[Gal(b1-4)GlcNAc(b1-3)Gal(b1-4)GlcNAc(b1-6)]GalNAc
Summary of the method: as §1

[17] = target: Gal(b1-4)GlcNAc(b1-3)Gal(b1-4)GlcNAc(b1-6)[Gal(b1-3)]GalNAc
Summary of the method: as §1

[18] = target: Gal(b1-4)GlcNAc(b1-3)Gal(b1-4)[Fuc(a1-3)]GlcNAc(b1-3)Gal(b1-4)[Fuc(a1-3)]GlcNAc
Summary of the method: as §1

[19] = target: Gal(b1-4)GlcNAc(b1-3)GalNAc
Summary of the method: as §1

[20] = target: Gal(b1-4)GlcNAc(b1-3)[Fuc(a1-3)GlcNAc(b1-6)]Gal(b1-4)Glc
Summary of the method: as §1

[21] = target: Gal(b1-4)GlcNAc(b1-3)[Gal(b1-4)GlcNAc(b1-6)]Gal(b1-4)GlcNAc
Summary of the method: as §1

[22] = target: Gal(b1-4)GlcNAc(b1-3)[Gal(b1-4)GlcNAc(b1-6)]GalNAc
Summary of the method: as §1

[23] = target: Gal(b1-4)GlcNAc(b1-3)[GlcNAc(b1-6)]Gal(b1-4)GlcNAc
Summary of the method: as §1

[24] = target: Gal(b1-4)GlcNAc(b1-6)Gal(b1-4)GlcNAc
Summary of the method: as §1

[25] = target: Gal(b1-4)GlcNAc(b1-6)GalNAc
Summary of the method: as §1

[26] = target: Gal(b1-4)GlcNAc(b1-6)[Gal(b1-3)]GalNAc
Summary of the method: as §1

[27] = target: Gal(b1-4)GlcNAc(b1-6)[Gal(b1-3)]GlcNAc
Summary of the method: as §1

[28] = target: Gal(b1-4)GlcNAc(b1-6)[Gal(b1-4)GlcNAc(b1-3)]GalNAc
Summary of the method: as §1

Gal(b1-4)GlcNAc6P = target: Gal(b1-4)GlcNAc6P
Summary of the method: as §1

Gal(b1-6)Gal = target: Gal(b1-6)Gal
Summary of the method: as §1

Gal3S(b1-3)GalNAc = target: Gal3S(b1-3)GalNAc
Summary of the method: as §1

Gal3S(b1-3)GlcNAc = target: Gal3S(b1-3)GlcNAc
Summary of the method: as §1

[29] = target: Gal3S(b1-3)[Fuc(a1-4)]GlcNAc
Summary of the method: as §1

Gal3S(b1-4)Glc = target: Gal3S(b1-4)Glc
Summary of the method: as §1

Gal3S(b1-4)Glc6S = target: Gal3S(b1-4)Glc6S
Summary of the method: as §1

Gal3S(b1-4)GlcNAc = target: Gal3S(b1-4)GlcNAc
Summary of the method: as §1

Gal3S(b1-4)GlcNAc6S = target: Gal3S(b1-4)GlcNAc6S
Summary of the method: as §1

[30] = target: Gal3S(b1-4)[Fuc(a1-3)]Glc6S
Summary of the method: as §1

B1: Epa7 (Candida glabrata), Q6DTM6_CANGB (protein)
chain: MGSSHHHHHHSSGLVPRGSHMKDDYSSFLSNNNLGWTDPTEFPLGCSPNVTTPKNGLSMELYSYDLRKNGSYPCWDAAYLDPNYPRTGYKSHRLLAKVDGVTGNINFYYHATKGCTPEIDHLPASYNYPKPLTMTNFTMLLYGYFKPKVTGYHTFTISADDLLFVNFGAGNAFDCCKRESSADDFGNYQAYAVWGSQTAKDDLTVHLDAGLYYPIRIFFNNREYDAELSLTLKTESDSNPVIDFSDYFYSFDDTKDGCPGLVSYDTS
[1]
  glycan array binding signal (z-score): 0.1
[2]
  glycan array binding signal (z-score): 0.038
[3]
  glycan array binding signal (z-score): 0.216
[4]
  glycan array binding signal (z-score): -0.116
[5]
  glycan array binding signal (z-score): 0.009
[6]
  glycan array binding signal (z-score): 0.095
[7]
  glycan array binding signal (z-score): 0.191
[8]
  glycan array binding signal (z-score): -0.002
[9]
  glycan array binding signal (z-score): 0.076
[10]
  glycan array binding signal (z-score): 0.138
[11]
  glycan array binding signal (z-score): 0.098
[12]
  glycan array binding signal (z-score): 0.02
[13]
  glycan array binding signal (z-score): 0.068
[14]
  glycan array binding signal (z-score): -0.012
[15]
  glycan array binding signal (z-score): -0.082
[16]
  glycan array binding signal (z-score): -0.077
[17]
  glycan array binding signal (z-score): 1.37
[18]
  glycan array binding signal (z-score): -0.127
[19]
  glycan array binding signal (z-score): -0.212
[20]
  glycan array binding signal (z-score): -0.166
[21]
  glycan array binding signal (z-score): 0.111
[22]
  glycan array binding signal (z-score): 5.02
[23]
  glycan array binding signal (z-score): -0.135
[24]
  glycan array binding signal (z-score): 0.23
[25]
  glycan array binding signal (z-score): 0.622
[26]
  glycan array binding signal (z-score): 2.16
[27]
  glycan array binding signal (z-score): 5.53
[28]
  glycan array binding signal (z-score): 0.32
Gal(b1-4)GlcNAc6P
  glycan array binding signal (z-score): -0.236
Gal(b1-6)Gal
  glycan array binding signal (z-score): -0.036
Gal3S(b1-3)GalNAc
  glycan array binding signal (z-score): -0.248
Gal3S(b1-3)GlcNAc
  glycan array binding signal (z-score): -0.245
[29]
  glycan array binding signal (z-score): -0.235
Gal3S(b1-4)Glc
  glycan array binding signal (z-score): -0.252
Gal3S(b1-4)Glc6S
  glycan array binding signal (z-score): -0.248
Gal3S(b1-4)GlcNAc
  glycan array binding signal (z-score): -0.251
Gal3S(b1-4)GlcNAc6S
  glycan array binding signal (z-score): -0.273
[30]
  glycan array binding signal (z-score): -0.09
